The values below come from PubChem BioAssay AID463173 (ICCB-Longwood Screening Facility, Harvard Medical School, 2010).

About 4,300 (8.3%) of roughly 52,000 compounds were called active. Rule as the data show it: active = survival mostly below about 52% (no sharp cut-off); inactive = mostly above about 56%. The list shows a part of the results.

This experiment concerns DeltatarO mutant. The experiment in a line: growth inhibition of S. aureus wild type versus tarO mutant, primary screen, teichoic acid synthesis inhibitors, RN4220, OD600 (AID 463173). As to conditions: OD600, 18 h, hits give low values, screened at 18.75 µg/mL (by protocol).
Regarding `Cc1cc2nsnc2c(S(=O)(=O)NCC(=O)O)c1C`, the survival was inactive: 101%.
The value for `CCOc1ccc2c(c1)c(=O)c(C(=O)c1ccc(CC)cc1)cn2CC(=O)Nc1ccccc1OC` was inactive: 68%; that for `COc1ccc(OC)c(NC(=O)Cn2c(=O)c3cccn3c3ccccc32)c1` was active: 41%.
On to `O=C(Nc1cccc(Cl)c1)C1CCCN(c2nn3cc(-c4ccc(F)cc4)nc3s2)C1` (stereo not given), for which the survival is inactive: 78%.
For `CCn1c(=O)n(-c2ccc3c(c2)OCO3)c2nc(-c3ccc(C(C)C)cc3)nc(C(N)=O)c21`, the survival is inactive: 121%.
The value for `COc1ccc2[nH]c3c(c2c1)CCn1c-3nc2ccccc2c1=O` was inactive: 87%.
The value for `CCOC(=O)C1CCN(C(=O)c2nn(-c3ccc(OC)c(Cl)c3)c(=O)c3c2c2ccccc2n3C)CC1` was inactive: 76%.
The value for `Cc1ccc(Cl)cc1NC(=O)CSc1nc2ccccc2c2nc(-c3ccccc3)nn12` was inactive: 113%; that for `CCOc1ccc(C(=O)Nc2cc(-c3nc4cc(OC)ccc4o3)ccc2C)cc1[N+](=O)[O-]` was inactive: 62%.
With `Cc1ccc(S(=O)(=O)c2cn(CC(=O)Nc3cccc(Cl)c3)c3ccccc3c2=O)cc1`, the survival was inactive: 112%.
The value for `Cc1cc(C)nc(SCc2nnc(SCC(=O)N3c4ccccc4Sc4ccc(Cl)cc43)o2)n1` was inactive: 80%; that for `O=C(CCn1c(=O)c2cccn2c2cccnc21)NCc1ccccc1Cl` was inactive: 85%.
The value for `O=C(NCC(c1cccnc1)N1CCN(c2ccccc2F)CC1)C(=O)Nc1ccc(F)cc1F` (stereo not given) was inactive: 53%.
For the compound `COc1cccc(N2CCN(C(=O)C3CCCN(S(=O)(=O)c4cccc5nsnc45)C3)CC2)c1` (stereo not given), the survival was inactive: 71%.
In the case of `Cc1ccc(CNC(=O)CCc2c(C)nn(-c3ccc(N4CCOCC4)nn3)c2C)cc1`, the survival was inactive: 116%.
With `CCOc1ccc(C(=O)c2cn(CC(=O)Nc3ccc4c(c3)OCO4)c3ccc(OC)cc3c2=O)cc1`, the survival was inactive: 104%.
Consider `COc1ccc(NC(=O)C2CCCCN2)cc1OC` (stereo not given), for which the survival is inactive: 94%.
Take `CCNC(=O)c1ccc2c(c1)nc1n2CCCCC1`: the survival is inactive: 97%.
The value for `Cc1ccccc1OCc1nc2c3cnn(-c4cccc(F)c4)c3ncn2n1` was inactive: 88%; that for `Cc1c(CNC2CCCCC2)c(C(=O)O)c(C)n1Cc1ccccc1F` was inactive: 88%.
For the compound `CC1(C)N=C(SCc2ccc(F)cc2)c2ccccc2N1`, the survival is inactive: 107%.
Take `O=C(Cn1cc(C(=O)C(F)(F)F)c2ccccc21)N1CCCCCC1`: the survival is inactive: 56%.
The value for `CCOc1ccccc1NC1(c2ccccc2)C(=O)c2ccccc2C1=O` was inactive: 93%; that for `CCC(=O)N(Cc1ccco1)c1nc(-c2ccccc2)cs1` was inactive: 81%.
Take `CC(=O)N1c2ccc(S(=O)(=O)NCc3ccccc3Cl)cc2CC1C` (stereo not given): the survival is inactive: 70%.
